Data published in PubChem BioAssay AID624296 (National Center for Advancing Translational Sciences (NCATS), 2012).
The campaign covered roughly 350,000 compounds. About 9,900 (2.8%) were called active. The inconclusive results got no clear call from the source; some entries with a clear call stand among them for comparison. Calls come from the whole dose curve; as a rule, active = well fitted activation curve with a large enough effect; inconclusive = small, poorly fitted or top-dose-only effect; inactive = no such curve, though single readings can be large or run the other way. No potency is given beside an inconclusive call; the fits are too rough.

assay: A quantitative high throughput screen for small molecules that induce DNA re-replication in MCF 10a normal breast cells.; note: nearly all actives have a fitted effect of over 50% in size; details: MCF 10A DNA re-replication, Hoechst nuclear intensity, 48 h; series mostly up to 46.1 µM
Potency is the fitted concentration of half-maximal effect; tags give direction and shape of the fitted curve.

| Structure (SMILES) | Potency |
| --- | --- |
| COc1ccccc1CCNC(=O)c1cc(COc2cccc(C(F)(F)F)c2)on1 | inactive |
| Cc1onc(-c2ccccc2)c1C(=O)NNC(=S)NC(=O)/C=C/c1ccccc1 | inconclusive [activator, full curve] |
| CCOc1ccccc1C(=O)NC(C)c1ccc2c(c1)OCO2 (configuration not stated) | inconclusive [activator, single point] |
| Cc1ccccc1C(=O)NC(=S)Nc1ccccc1[N+](=O)[O-] | inactive |
| COc1ccc(NC(=O)CSc2nc3ccc(Nc4nc(N5CCOCC5)nc(N5CCOCC5)n4)cc3s2)cc1 | active: 2.06 µM |
| CC(SCc1ccc(C(=O)O)o1)c1ccc(C(=O)O)o1 (configuration not stated) | inactive |
| Cc1cccc(-n2ncc3c(=O)[nH]c(SCC(=O)Nc4cc(C)on4)nc32)c1 | inconclusive [activator, single point] |
| CCC(C)NC(=O)c1ccccc1NC(=O)/C(=C/c1ccc(OC)cc1)c1ccccc1 (configuration not stated) | inconclusive [activator, partial curve, poor fit] |
| O=c1c2ccccc2nc(-c2ccco2)n1CCc1ccc(O)cc1 | inconclusive [activator, single point] |
| Cc1[nH]n(C)c(=O)c1C(=O)c1c(-c2ccccc2Cl)noc1C | active: 25.9 µM |
| CC(=O)CCc1ccc(Oc2nc(-c3cccnc3)nc3ccccc23)cc1 | inconclusive [activator, single point] |
| O=C(NN1C(=O)/C(=C\c2cccnc2)SC1=S)C(c1ccccc1)c1ccccc1 | active: 14.6 µM |
| CSc1nc(-c2ccccc2)c(-c2ccccc2)[nH]1 | inconclusive [activator, partial curve, poor fit] |
| CCCNc1cc(C)c(C#N)c2nc3ccccc3n12 | inconclusive [activator, partial curve] |
| OCC1(CCOc2ccccc2)CCN(Cc2ccccc2C(F)(F)F)CC1 | inconclusive [activator, partial curve, poor fit] |
| OCCCn1c(-c2ccccc2)csc1=Nc1ccccc1 | inconclusive [activator, partial curve] |
| O=c1c2ccccc2oc2cc(NCCCN3CCOCC3)ccc12 | active: 16.4 µM |
| CCn1c(SCC(=O)Nc2cc(C)on2)nc2sc3c(c2c1=O)CCCC3 | inconclusive [activator, single point] |
| CN(CC(=O)Nc1ccc(F)c(F)c1F)C(=O)/C=C/c1ccco1 | inactive |
| Cc1cccc(C(=O)Nc2scc(CC(C)C)c2C(=O)O)c1 | inconclusive [activator, single point] |
| Cc1ccc(NC(=O)CN(C)C(=O)COC(=O)/C=C/c2cccs2)cc1 | inactive |
| COc1cccc2c(O)cc(=O)n(C)c12 | inconclusive [activator, single point] |
| CCC(=O)Nc1cccc(C(=O)/C=C/c2ccccc2)c1 | active: 8.2 µM |
| COC(=O)c1ccc(N)c(N=CC2=C(O)CC(C)(C)CC2=O)c1 | inconclusive [activator, single point] |

| Structure (SMILES) | Potency |
| --- | --- |
| Nc1nc(CN2CCN(Cc3ccccc3)CC2)nc(Nc2ccccc2)n1 | inactive |
| CC(=O)/C(=C/c1ccccc1)C(=O)Nc1ccccc1C | inconclusive [activator, single point] |
| Brc1ccc(CNc2ccc3ncccc3c2)cc1 | active: 14.6 µM |
| Cc1ccccc1NC(=O)c1ccc([N+](=O)[O-])o1 | active: 14.6 µM |
| O=C(Nc1ccc(C(F)(F)F)cc1Cl)c1ccc(Cn2cc(Br)cn2)o1 | active: 13 µM |
| Cc1ccc(-c2nc(C=Nc3ccc(O)cc3)c(O)o2)cc1 | active: 14.6 µM |
| CC(=O)Nc1nc2n(n1)C(c1ccc(F)cc1)C=C(c1ccccc1)N2 (configuration not stated) | inconclusive [activator, full curve, poor fit] |
| COc1ccc(C(=O)Nc2nccs2)cc1 | inactive |
| O=C(CN1CCCC1)Nc1c2c(cc3c1CCC3)CCC2 | inconclusive [activator, partial curve, poor fit] |
| C=Cc1ccc(Cn2nc(-c3ccc(C)cc3)ccc2=O)cc1 | inconclusive [activator, single point] |
| Cc1cc(OCc2nn[nH]n2)c2c(C)c(Cc3ccccc3)c(=O)oc2c1 | inconclusive [activator, full curve] |
| C#CC[N+](C)(C)C(C#Cc1ccccc1)CC=C (configuration not stated) | inconclusive [activator, single point] |
| CC(C)CCNC(=O)C1CC(c2ccccc2[N+](=O)[O-])=NO1 (configuration not stated) | inactive |
| COc1cccc(CNC(=O)N2CCN(c3ccccc3Cl)CC2)c1 | inconclusive [activator, single point] |
| CC1=C(C(=O)OC2CCCC2)C(c2coc3ccccc3c2=O)C2=C(CC(C)(C)CC2=O)N1 (configuration not stated) | inconclusive [activator, single point] |
| CC1CCC(C(C)C)C(OC(=O)CSc2nccc(=O)[nH]2)C1 (configuration not stated) | inactive |
| CCC(=O)N1CCN(c2ccc(NC(=O)c3cc4ccccc4o3)cc2Cl)CC1 | inconclusive [activator, single point] |
| Cc1ccc(S(=O)(=O)N(C)c2ccc(C(=O)Nc3ccc(C)cn3)cc2)cc1 | inconclusive [activator, partial curve, poor fit] |
| CCOc1ccccc1NC(=O)/C=C/c1ccccc1[N+](=O)[O-] | inactive |
| CCn1c(SCC(=O)NCCc2ccc(OC)c(OC)c2)nc2c1c(=O)n(C)c(=O)n2C | inactive |
| COC(=O)c1ccc(NC(=O)CSCc2ccccc2C)cc1 | inconclusive [activator, full curve] |
| CC(C)(C)c1ccc(OCC(O)CN2CCN(c3ccccn3)CC2)cc1 (configuration not stated) | inactive |
| Oc1ccc(N=Nc2ccc3c(c2)OCCO3)c2cccnc12 | inactive |
| CC(=O)c1ccc(NC(=O)c2cc(Cl)nc3ccccc23)cc1 | inconclusive [activator, partial curve, poor fit] |

| Structure (SMILES) | Potency |
| --- | --- |
| C=CCn1c(C)cc(C(=O)COc2ccc(C)nc2[N+](=O)[O-])c1C | inconclusive [activator, single point] |
| O=C(/C=C/c1ccccc1Cl)NCc1ccco1 | inconclusive [activator, full curve, poor fit] |
| COCCn1c(=O)[nH]c2cc(C(=O)NCCN3CCN(c4cccc(Cl)c4)CC3)ccc2c1=O | inactive |
| Cc1nn(-c2ccccc2)c(C)c1/C=N/n1c(-c2ccc(Cl)cc2)n[nH]c1=S | inconclusive [activator, single point] |
| COc1ccc2[nH]c(CN3CCC(CO)(CCOc4ccccc4)CC3)c(C)c2c1 | active: 20.6 µM |
| CC(NC(=O)/C(C#N)=C/c1ccc(C(=O)O)cc1)c1ccccc1 (configuration not stated) | inconclusive [activator, single point] |
| CCCC(=O)OCCNc1cc(Sc2nccn2C)c2nonc2c1[N+](=O)[O-] | inconclusive [activator, full curve] |
| Cc1ccc2occ(CN3CCN(c4ccccc4)CC3)c(=O)c2c1 | inconclusive [activator, partial curve, poor fit] |
| COc1cccc(NC(=O)C(=O)N/N=C/c2cc(C)n(-c3ccc(Cl)c(Cl)c3)c2C)c1 | inactive |
| CCN(CC)C(=O)CSc1nc(-c2cccs2)cc(-c2cccs2)c1C#N | inconclusive [activator, full curve, poor fit] |
| COC(=O)c1cccc(Nc2ncnc3sccc23)c1 | inactive |
| Cc1c(C(=O)Oc2cccc3ccccc23)cnn1-c1ccccc1 | inactive |
| NC(=O)CC(NC(=O)Cc1ccc(Br)cc1)c1ccc(NCCc2ccc(Cl)cc2)c([N+](=O)[O-])c1 (configuration not stated) | inconclusive [activator, single point] |
| COCCN(CCOC)C(=O)c1sc2nc(-c3ccccc3)cn2c1C | inconclusive [activator, partial curve, poor fit] |
| COc1ccc2nc(C)cc(Nc3ccc(C)cc3)c2c1 | inconclusive [activator, single point] |
| Cc1ccc(NC(=S)N2CCCC(O)C2)cc1 (configuration not stated) | inconclusive [activator, single point] |
| O=C1N[C@@H](c2ccccc2)COC(=O)[C@H](Cc2ccc(F)cc2)CC/C=C/C[C@H]1CC(=O)N(CCO)Cc1ccccc1 | inactive |
| COc1cccc(C(=O)c2c[nH]c(C(=O)NCc3cccnc3)c2)c1 | inconclusive [activator, partial curve, poor fit] |
| COc1ccc(N(CC(=O)N2CCN(c3cccc(C)c3C)CC2)S(=O)(=O)c2c(C)noc2C)cc1 | inconclusive [activator, partial curve, poor fit] |
| CC1=C(C(=O)Nc2ccc(CC(=O)NCc3ccccc3C)cc2)SCCO1 | inconclusive [activator, single point] |
| COC(=O)c1c(NC(=O)c2nn(C)cc2Cl)sc2c1CCCC2 | inactive |
| Cc1cc(C(=O)N/N=C/c2cc(Br)cc([N+](=O)[O-])c2O)c2ccccc2n1 | inactive |
| Cc1ccc(-n2c(N)c(C(=O)Nc3ccccc3F)sc2=S)cc1C | inactive |
| CC(C)(C)c1ccc2c(c1)OC(C(=O)N/N=C/c1ccc([N+](=O)[O-])o1)CO2 (configuration not stated) | inconclusive [activator, single point] |
